Reference: US20030104362A1 (published 2003)

Biological target: T1, CYB1-VP16 fusion protein (Candida albicans CYB1 coding sequence subcloned into pJG4-5) (Candida albicans, UniProt P47829 1-492)
T1 construct: also called Candida cyclin B homolog
T1 sequence: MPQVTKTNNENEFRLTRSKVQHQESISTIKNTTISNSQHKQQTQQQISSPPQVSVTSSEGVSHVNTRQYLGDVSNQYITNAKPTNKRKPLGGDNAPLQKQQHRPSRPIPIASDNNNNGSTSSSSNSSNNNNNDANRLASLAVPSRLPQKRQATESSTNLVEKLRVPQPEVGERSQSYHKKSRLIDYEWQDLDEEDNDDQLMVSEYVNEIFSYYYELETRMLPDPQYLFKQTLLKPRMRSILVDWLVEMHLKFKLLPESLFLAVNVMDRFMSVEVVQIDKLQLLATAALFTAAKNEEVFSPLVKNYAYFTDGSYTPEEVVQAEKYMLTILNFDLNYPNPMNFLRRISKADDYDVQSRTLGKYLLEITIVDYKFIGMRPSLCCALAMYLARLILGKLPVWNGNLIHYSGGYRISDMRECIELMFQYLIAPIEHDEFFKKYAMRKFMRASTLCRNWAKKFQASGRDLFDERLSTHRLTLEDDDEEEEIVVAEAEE
Experiment: interaction trap (yeast two-hybrid) in S. cerevisiae YEG048: CDK1-LexA fusion from pEG202 with CYB1-VP16 fusion from pJG4-5

B1: CDK1-LexA fusion protein (Candida albicans CDK1 coding sequence subcloned into pEG202) (other)
chain: MVELSDYQRQEKVGEGTYGVVYKALDTKHNNRVVALKKIRLESEDEGVPSTAIREISLLKEMKDDNIVRLYDIIHSDSHKLYLVFEFLDLDLKKYMESIPQGVGLGANMIKRFMNQLIRGIKHCHSHRVLHRDLKPQNLLIDKEGNLKLADFGLARAFGVPLRAYTHEVVTLWYRAPEILLGGKQYSTGVDMWSVGCIFAEMCNRKPLFPGDSEIDEIFRIFRILGTPNEEIWPDVNYLPDFKSSFPQWKKKPLSEAVPSLDANGIDLLDQMLVYDPSRRISAKRALIHPYFNDNDDRDHNNYNEDNIGIDKHQNMQ
notes: also called Candida cyclin-dependent kinase; not shown: LexA portion supplied by vector pEG202
binding result: binds
